# Laboratory results taken from PubChem BioAssay AID493208 (National Center for Advancing Translational Sciences (NCATS), 2011).
# About 340 (0.77%) of roughly 44,000 compounds were called active. Roughly 5% stayed inconclusive and do not appear here. Calls come from the whole dose curve; as a rule, active = well fitted inhibition curve with a large enough effect; inconclusive = small, poorly fitted or top-dose-only effect; inactive = flat fitted curve, though single readings scatter. Some of the results follow.
# Test: Acumen qHTS Assay for Inhibitors of the mTORC1 Signaling Pathway in MEF (Tsc2-/-, p53-/-) Cells: Sytravon;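 note: plate controls were DMSO for no effect and rapamycin for full effect; nearly all actives have a fitted effect of over 50% in size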
# Details: phospho-rpS6 immunofluorescence/PI, 24 h; series mostly up to 38.3 µM; activity change, negative = inhibition: at the top concentration
# Method in brief: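 Tsc2-/-, p53-/- mouse embryonic fibroblasts (empty-vector line) exposed to compound 24 hrs at 37 C, fixed, immunostained for phospho-rpS6 and counterstained with propidium iodide. Acumen laser scanning gives % positive cells from Alexa 488/PI ratio, thresholded using 7.5 nM rapamycin; PI count gives viability.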
row,Structure (SMILES),"activity change, negative = inhibition"
1,CCc1c(C)nc2nncn2c1Nc1cccc(C)c1,inactive: 1.04%
2,COc1ccc(-c2nc(SCC(=O)Nc3cccc(C(C)=O)c3)n[nH]2)cc1,inactive: -5.13%
3,Fc1ccc(-c2noc3ncnc(N4CCCCC4)c23)cc1,inactive: -8.36%
4,O=C(Cc1ccccc1)Nc1cc(-c2nc3cc(Cl)ccc3o2)ccc1Cl,inactive: -4.16%
5,COc1ccc(Cc2nc3ccc(C(=O)NCc4cc(Br)ccc4OC)cc3o2)cc1,inactive: 0.436%
6,CCOC(=O)c1c(NC(=O)CS(=O)(=O)c2ccc(Cl)cc2)sc2c1CCCC2,inactive: 0.915%
7,COc1ccc(CCC(=O)NCc2nc3cccnc3n2Cc2ccc(OC)cc2)cc1,inactive: -1.73%
8,CNC(=O)C1CCN(C(=O)N2CC(C)Oc3ccc(C)cc32)CC1 (stereo unspecified),inactive: 3.23%
9,CCOC(=O)c1c(NC(=O)c2cc(=O)c3c(C)cc(C)cc3o2)sc2c1CCC2,inactive: 6.49%
10,COc1ccc(-c2cc(C(=O)OCC(=O)c3cccc(OC)c3)c3cccc(Cl)c3n2)cc1,inactive: -9%
11,COc1ccccc1N(C)C(=O)Cn1c(=O)oc2cc(S(=O)(=O)N3CCCC3)ccc21,inactive: -7.17%
12,Cc1ccccc1CNC(=O)C1CCCN(c2nnc(-n3c(C)ccc3C)s2)C1 (stereo unspecified),inactive: -9.56%
13,Cn1c(=O)c2c(ncn2CC(=O)Nc2cc(Cl)cc(Cl)c2)n(C)c1=O,inactive: -18.3%
14,Clc1ccc(CCNC(c2cccc(Cl)c2)c2nnc(-c3ccccc3)o2)cc1 (stereo unspecified),inactive: -10.9%
15,Cn1cc(S(=O)(=O)N2CCCCCC2)cc1C(=O)N1CCN(c2ccc(Cl)cc2)CC1,inactive: -1.9%
16,CCOC(=O)c1cc(-c2ccccc2)n(CCCC(=O)Nc2ccc(C)c(C)c2)c1C,inactive: -16.4%
17,Cc1nn(C)c2c1c(C(F)(F)F)cc(=O)n2C(C)C(=O)N1CCN(c2ccccc2)CC1 (stereo unspecified),inactive: -16.3%
18,CC1=C(C(=O)Nc2ccccc2)C(c2ccccc2Cl)n2ncc(C(=O)Nc3cccc(C)c3)c2N1 (stereo unspecified),inactive: -3.15%
19,CCOC(=O)c1c(C)[nH]c(C)c1S(=O)(=O)N1CCN(c2ccccc2OC)CC1,inactive: -5.56%
20,O=C(O)CCc1ccc(-c2ccccc2)n1-c1cccc(Br)c1,inactive: -11%
21,COc1cc(/C=C/c2nc(C#N)c(NC(C)c3ccccc3)o2)cc(OC)c1OC (stereo unspecified),inactive: -18.5%

row,Structure (SMILES),"activity change, negative = inhibition"
1,CN(Cc1ccccc1)C(=O)c1cc2c(s1)-c1ccc(Cl)cc1SC2,inactive: -1.59%
2,CCOc1ccc(CNC(=O)Cn2c(=O)c3cccn3c3ccc(F)cc32)cc1OC,inactive: 2.99%
3,Cc1ccc(CNC(=O)Cn2c(=O)n(-c3ccccc3)c(=O)c3c2c2cc(C)ccc2n3C)cc1,inactive: 2.69%
4,Cc1ccc(NC(=O)CCSc2nc(-c3ccc4c(c3)OCO4)cc(C(F)(F)F)n2)cc1,inactive: -17.6%
5,CCCCN(C)CCNC(=O)Cn1ncc2c([nH]c3ccccc32)c1=O,inactive: -4.76%
6,CCOC(=O)CCN(c1ccccc1)S(=O)(=O)c1ccc2[nH]c(=O)ccc2c1,inactive: 0.508%
7,CCc1ccc(Oc2nc3c(C)cccn3c(=O)c2/C=C(\C#N)c2nc3ccccc3s2)cc1,inactive: 1.98%
8,O=C(c1ccc(Cl)cc1)n1nc(-c2ccco2)nc1NCc1cccs1,inactive: 0.0071%
9,COc1ccc(CCCc2nnc(SCC(=O)Nc3ccccc3F)o2)cc1C,inactive: -1.63%
10,CCOCCCNC(=O)CN1C(=O)c2c(c3ccccc3n2C)C1c1ccc(OC)cc1 (stereo unspecified),inactive: -3.87%
11,COc1cccc(N(Cc2nnc3n2CCCCC3)C(=O)Nc2cccc(Cl)c2)c1,inactive: 6.35%
12,O=C(Cc1csc2nc(-c3ccccc3)cn12)NCc1ccc(F)cc1,inactive: 0%
13,CCOc1ccccc1NC(=O)N1CCCn2nc(C)cc21,inactive: 4.6%
14,O=C(NCC(c1cccs1)S(=O)(=O)c1cccs1)c1ccc(C(F)(F)F)cc1 (stereo unspecified),inactive: -0.804%
15,CCOC(=O)c1c(S(=O)(=O)N2CCCC(C(=O)Nc3ncccc3C)C2)c(C)n(C)c1C (stereo unspecified),inactive: -3.02%
16,O=C(OCc1ccccc1Cl)c1ccc(-c2nnn(Cc3ccccc3Cl)n2)cc1,inactive: 2.74%
17,Cc1ccc(NC(=O)CCc2c(C)nn(-c3ccc(N4CCOCC4)nn3)c2C)cc1F,inactive: 5.01%
18,COc1ccc(N(C(=O)COc2ccc(Br)cc2)S(=O)(=O)c2ccc(C)cc2)cc1,inactive: -6.32%
19,COc1ccc(Cn2ccc3nc(C)c(C(=O)Nc4ccc(OC)cc4OC)cc3c2=O)cc1,inactive: -3.88%
20,O=C1Nc2cc(Cl)ccc2Oc2cc(Oc3ccccc3)ccc21,inactive: -27%
21,Cc1ccc(C)c(CN2C(=O)c3ccccc3S(=O)c3ccc(C(=O)NCc4ccco4)cc32)c1 (stereo unspecified),inactive: 0.456%

row,Structure (SMILES),"activity change, negative = inhibition"
1,Cc1cc(C)c(S(=O)(=O)Nc2cccc(-c3cn4ccccc4n3)c2)c(C)c1,inactive: -7.33%
2,Cc1ccc(NC(=O)Cn2cc(S(=O)(=O)NC(C)C)c(S(=O)(=O)NC(C)C)c2)cc1Cl,inactive: -21.2%
3,COc1ccc(Oc2nc3c(c(=O)n(Cc4ccccc4Cl)c(=O)n3C)n2C)cc1,inactive: -5.64%
4,COC(=O)c1c(SCC(=O)Nc2ccccc2OC)[nH]c2ccccc2c1=O,inactive: 6.45%
5,Cc1cc2ccccc2n1-c1ccc(C(=O)N2CCC(C(=O)NCc3ccc(F)cc3)CC2)s1,inactive: -6.5%
6,O=C(C1CC1)N1CCc2cc(Br)cc(S(=O)(=O)N3CCN(c4ccccc4F)CC3)c21,inactive: 4.65%
7,COc1ccc(CNC(=O)Cn2ccc3cc(S(=O)(=O)N4CCCCCC4)ccc32)c(OC)c1,inactive: 0%
8,Cc1ccc(N2CC(NC(=O)/C=C\c3ccc4c(c3)OCO4)CC2=O)cc1 (stereo unspecified),inactive: -0.46%
9,O=C(/C=C/c1ccco1)Nc1ccc(Cl)c(-c2nc3cc(Cl)ccc3o2)c1,inactive: -5.36%
10,Cc1ccc(NC(=O)C2CCN(c3nn4c(=O)cc(C)nc4s3)CC2)cc1,inactive: 3.93%
11,COc1cccc(NC(=O)c2ccc(CNS(=O)(=O)c3ccc4c(c3)C(C)(C)C(=O)N4C)cc2)c1,inactive: -14.4%
12,CC(C)n1c(=O)c2oc3ccccc3c2n(Cc2ccccc2F)c1=O,inactive: -3.37%
13,Cc1ccc(-c2nnc(Nc3ccc(O)cc3)c3ccccc23)cc1S(=O)(=O)NCC1CCCO1 (stereo unspecified),inactive: -12.5%
14,CCOC(=O)c1cccc(NC(=O)CCNS(=O)(=O)c2cccc3nonc23)c1,inactive: -17.4%
15,CC1=C(c2ccc(Cl)cc2)S(=O)(=O)NC1=NCc1ccc(C)cc1,inactive: 3.5%
16,O=C(CSc1nc2c(oc3ccccc32)c(=O)[nH]1)Nc1cccc(Cl)c1,inactive: 2.62%
17,CC12CN3CC(C)(CN(C1)C3c1ccc(OCc3ccccc3)cc1)C2=O (stereo unspecified),inactive: -2.45%
18,Cc1ccc(CCNC(=O)c2ccc(CSCc3ccc(C)cc3)o2)cc1,inactive: 8.05%
19,CCOC(=O)c1ccc(NC(=O)c2cc3c(n(-c4ccc(C)cc4)c2=O)CC(C)(C)CC3=O)cc1,inactive: 12.8%
